Test results from publication PMC4336329 (PLoS ONE, 2015).
Screen size: about 310,000 compounds; about 2,200 (0.71%) showed an effect of 50% or more. The effect is printed as a negative number. The list shows a part of the results.

The compounds below were run against human ether-à-go-go-related gene (hERG) potassium channel (human, UniProt Q12809) (assay: primary screen, population patch clamp on CHO cells stably expressing hERG).
human ether-à-go-go-related gene (hERG) potassium channel, sequence (Q12809 whole entry, looked up): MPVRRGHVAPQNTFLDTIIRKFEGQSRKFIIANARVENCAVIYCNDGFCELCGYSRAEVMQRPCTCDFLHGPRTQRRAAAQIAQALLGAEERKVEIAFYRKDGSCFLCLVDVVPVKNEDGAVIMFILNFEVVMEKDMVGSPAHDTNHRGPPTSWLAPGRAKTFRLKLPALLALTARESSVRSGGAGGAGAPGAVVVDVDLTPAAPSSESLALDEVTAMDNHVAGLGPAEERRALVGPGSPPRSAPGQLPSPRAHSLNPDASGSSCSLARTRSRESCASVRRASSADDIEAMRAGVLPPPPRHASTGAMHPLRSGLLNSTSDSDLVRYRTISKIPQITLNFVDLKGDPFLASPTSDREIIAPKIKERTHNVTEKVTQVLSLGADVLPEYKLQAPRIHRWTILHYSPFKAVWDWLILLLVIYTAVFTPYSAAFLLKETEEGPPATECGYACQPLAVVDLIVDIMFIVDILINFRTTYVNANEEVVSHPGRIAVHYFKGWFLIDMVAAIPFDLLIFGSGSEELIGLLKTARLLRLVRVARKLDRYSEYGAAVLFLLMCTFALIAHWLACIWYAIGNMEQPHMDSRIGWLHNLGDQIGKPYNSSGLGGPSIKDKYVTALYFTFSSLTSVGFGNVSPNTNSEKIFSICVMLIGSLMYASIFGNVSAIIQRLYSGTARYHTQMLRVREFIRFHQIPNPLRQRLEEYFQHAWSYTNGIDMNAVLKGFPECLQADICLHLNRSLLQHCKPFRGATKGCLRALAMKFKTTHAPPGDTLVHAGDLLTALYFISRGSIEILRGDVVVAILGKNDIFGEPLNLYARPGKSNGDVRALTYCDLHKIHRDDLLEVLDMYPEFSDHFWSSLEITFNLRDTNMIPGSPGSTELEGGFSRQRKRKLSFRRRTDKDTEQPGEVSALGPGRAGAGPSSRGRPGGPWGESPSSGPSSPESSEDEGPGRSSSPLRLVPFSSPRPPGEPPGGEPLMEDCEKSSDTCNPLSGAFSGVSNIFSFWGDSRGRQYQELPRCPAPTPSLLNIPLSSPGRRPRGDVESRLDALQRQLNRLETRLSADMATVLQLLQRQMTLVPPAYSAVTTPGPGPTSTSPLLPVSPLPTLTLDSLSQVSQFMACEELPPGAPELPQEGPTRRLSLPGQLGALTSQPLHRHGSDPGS

Compared with `COc1ccc(NC(=O)CNC(=O)Cn2c(C)cc3ccccc3c2=O)cc1OC`, `CCOc1ccc(NC(=O)CN(C)C(=O)CSCc2cccc(C)c2)cc1OCC` is higher in “hERG current change (%, negative = inhibition) at 1uM” value: 10.5% for the first, 14.2% for the second.

Compared with `Cc1ccc(-n2c3c(cc(C(=O)O)c2=O)C(=O)CC(C)(C)C3)cc1`, `COc1ccc(N2CC(C(=O)N/N=C/c3ccc(C)cc3)CC2=O)cc1` (stereo not shown) is lower in “hERG current change (%, negative = inhibition) at 1uM” value: 16.5% for the first, 8.57% for the second.

Compared with `COCc1c(C(=O)N/N=C/c2ccc(C)o2)nnn1-c1nonc1N`, `Cc1ccc(C(=O)NCc2nc3ccccc3[nH]2)o1` is lower in “hERG current change (%, negative = inhibition) at 1uM” value: 16.1% for the first, 7.59% for the second.

First: CCOC(=O)C1(Cc2ccccc2)CCN(Cc2cc(=O)c3ccccc3[nH]2)CC1
Second: COc1ccc(OC)c(-n2c(CNC3CCN(Cc4ccccc4)CC3)nc3ccccc3c2=O)c1
The “hERG current change (%, negative = inhibition) at 1uM” value of the first is higher: 5.22% for the first, -69.9% for the second.

Going from `O=C(Nc1ccc(O)c(-c2nc3ccccc3o2)c1)C1(c2ccc(Br)cc2)CCCC1` to `Cc1ccc(NC(=O)CSc2nc3ccccc3c(=O)n2CC2CCCO2)cc1` (stereo not shown), the “hERG current change (%, negative = inhibition) at 1uM” value rises from 6.48% to 11.7%.

Going from `COCCNC(=O)C(=O)NCC1OCCN1S(=O)(=O)c1cccs1` (stereo not shown) to `COCCCNC(=O)CN1C(=O)c2ccccc2C1=O`, the “hERG current change (%, negative = inhibition) at 1uM” value falls from 8.72% to 6.62%.

First: CCC1(c2ccc(F)cc2)NC(=O)N(CC(=O)Nc2ccccc2C)C1=O (stereo not shown)
Second: COCCN1C(=O)c2ccccc2C(C(=O)NCCN(C)C)C1c1ccc(F)cc1 (stereo not shown)
The “hERG current change (%, negative = inhibition) at 1uM” value of the first is lower: 10.1% for the first, 13.8% for the second.

Going from `O=C(CSC1CN(C(c2ccccc2)c2ccccc2)C1)N/N=C/c1ccc(Cl)cc1Cl` to `CCCC(C(=O)Nc1ccc(S(=O)(=O)N2CCOCC2)cc1)c1ccccc1` (stereo not shown), the “hERG current change (%, negative = inhibition) at 1uM” value falls from 6.72% to 1.63%.

Going from `COCCSc1nnc(NC(=O)CSCc2ccccc2)s1` to `CC(/C=N/NC(=O)CSc1nnc(SCc2ccccc2)s1)=C\c1ccco1`, the “hERG current change (%, negative = inhibition) at 1uM” value falls from 10.1% to 0.144%.

First: O=C(NNC(=O)c1c(F)cccc1F)c1sccc1-n1cccc1
Second: CN(C)S(=O)(=O)c1ccc(F)c(C(=O)Nc2ccccc2C(=O)NC2CC2)c1
The “hERG current change (%, negative = inhibition) at 1uM” value of the first is higher: 8.94% for the first, -3.86% for the second.

Going from `COc1ccc(/C=C/C(=O)OCC(=O)N2CCc3ccccc32)cc1` to `CC(C)(Oc1ccc(Cl)cc1)C(=O)OCC(=O)N1CCN(c2ccccc2)CC1`, the “hERG current change (%, negative = inhibition) at 1uM” value falls from 10.3% to -5.7%.

Compared with `CCOC(=O)CSc1ncc(OC)c(Sc2ccc(OC)cc2)n1`, `COc1ccc(-c2n[nH]c3c2CN(C(=O)c2ccc(OC)c(OC)c2)CC3)cc1` is lower in “hERG current change (%, negative = inhibition) at 1uM” value: 8.66% for the first, 8.55% for the second.

Going from `CC(C)C1Oc2ccccc2N(CC(=O)N(C)C2CCCCC2)C1=O` (stereo not shown) to `Cc1ccnc(NC(=O)CCC(=O)N(CC(=O)NC2CCCCC2)Cc2cccs2)c1`, the “hERG current change (%, negative = inhibition) at 1uM” value rises from 7.7% to 12.5%.

Compared with `CC(=O)N1c2ccc(S(=O)(=O)NCC3CCC(C(=O)NCc4ccco4)CC3)cc2CC1C` (stereo not shown), `O=C(COC(=O)CCC(=O)c1ccc(F)cc1)NCc1ccco1` is higher in “hERG current change (%, negative = inhibition) at 1uM” value: 11.5% for the first, 12.3% for the second.

Going from `CC(C)[C@H](NC(=O)c1cccc(S(=O)(=O)N2CCOCC2)c1)C(=O)Nc1nc2ccccc2s1` to `O=C(N/N=C/c1cccnc1)c1cccc(S(=O)(=O)N2CCCC2)c1`, the “hERG current change (%, negative = inhibition) at 1uM” value rises from 6.3% to 10.5%.

First: C=CCN1C(=O)CN=C1Nc1ccc(OC)cc1OC.Cl
Second: COc1ccc(OC)c(NC(=O)C(C)SCc2nc3sc(C)c(C)c3c(=O)[nH]2)c1 (stereo not shown)
The “hERG current change (%, negative = inhibition) at 1uM” value of the first is higher: 11.5% for the first, -1.73% for the second.

Going from `Cc1nnc(-c2cnn(C)c2N)n1Cc1ccc2c(c1)OCO2` to `Cc1ccc2[nH]c3c(c2c1)CN(C(=O)CN1CCN(Cc2ccc4c(c2)OCO4)CC1)CC3`, the “hERG current change (%, negative = inhibition) at 1uM” value falls from 12.6% to -1.37%.

First: CCc1nccn1S(=O)(=O)c1cc(Br)ccc1OC
Second: COc1ccc(C)cc1S(=O)(=O)Nc1cccnc1
The “hERG current change (%, negative = inhibition) at 1uM” value of the first is higher: 15.8% for the first, -11.5% for the second.

Going from `CC1(C)Cc2nc3sc4c(=O)n(Cc5ccccc5)cnc4c3cc2CS1` to `COC(=O)C1C(O)=C(C(C)=Nc2cccc3ccccc23)C(=O)CC1(C)C` (stereo not shown), the “hERG current change (%, negative = inhibition) at 1uM” value rises from 6.46% to 12.6%.

Compared with `CC(=O)Nc1ccc(S(=O)(=O)NCCc2cn3nc(C)c(C)nc3n2)cc1`, `Cc1cccc(C)c1NS(=O)(=O)c1ccc2c(c1)NC(=O)CO2` is lower in “hERG current change (%, negative = inhibition) at 1uM” value: 17.3% for the first, 8.92% for the second.

Going from `O=C1CN(C(=O)C2CCCC2)CCN1` to `COc1cc(/C=N/n2c(C3CCCCC3)n[nH]c2=S)cc(Br)c1O`, the “hERG current change (%, negative = inhibition) at 1uM” value falls from 19.3% to 15.1%.

Compared with `CCCC(=NC(C)CC)C1=C(O)CC(c2ccccc2)CC1=O` (stereo not shown), `O=C1C=C(O)CC(c2ccc(Cl)cc2)C1` (stereo not shown) is higher in “hERG current change (%, negative = inhibition) at 1uM” value: 8.44% for the first, 12.3% for the second.

Compared with `CCCCN(C(=O)C1CC(=O)N(CCc2ccc(OC)c(OC)c2)C1)c1c(N)n(CCCC)c(=O)[nH]c1=O` (stereo not shown), `CCOC(=O)c1c(C)n(C)c2ccc(OC)c(NS(=O)(=O)CC)c12` is lower in “hERG current change (%, negative = inhibition) at 1uM” value: 7.68% for the first, 1.35% for the second.

First: COc1ccc(Nc2nc(NCc3ccco3)nc(N/N=C/c3ccccc3F)n2)cc1
Second: COc1ccc2nc3oc(C(=O)NC4CCN(Cc5ccccc5)CC4)cc3cc2c1
The “hERG current change (%, negative = inhibition) at 1uM” value of the first is higher: 4.11% for the first, 2.54% for the second.

Compared with `O=C(N/N=C/c1cc(Br)c(O)c(Br)c1)c1cccnc1`, `O=[N+]([O-])c1ccc(Cl)c(/C=N/n2c(-c3cccnc3)n[nH]c2=S)c1` is lower in “hERG current change (%, negative = inhibition) at 1uM” value: 18.5% for the first, 8.62% for the second.

Compared with `Cc1cc(=O)n2ncnc2n1COCCO`, `CCNc1cc(=O)n(C)c(=O)n1C` is lower in “hERG current change (%, negative = inhibition) at 1uM” value: 7.25% for the first, 1.89% for the second.

First: O=C(c1ccco1)N1CCN(CC(O)COc2ccc3oc4ccccc4c3c2)CC1 (stereo not shown)
Second: COC(=O)c1cn(C(=O)c2cccc(C)c2)c2ccccc12
The “hERG current change (%, negative = inhibition) at 1uM” value of the first is lower: -25.2% for the first, 0.386% for the second.

First: C=CCN(c1ccccc1)S(=O)(=O)c1ccc(Cl)c(C(=O)OCC(=O)c2[nH]c(C)c(C(C)=O)c2C)c1
Second: COC(=O)N1C(=O)[C@](Cc2ccccc2)(c2ccccc2)N1C(=O)OC
The “hERG current change (%, negative = inhibition) at 1uM” value of the first is lower: 12% for the first, 15.4% for the second.

First: COc1cc(/C=N/N2CCN(c3ccccc3OC)CC2)ccc1OC(C)=O
Second: COc1cc2c(cc1CN1CCN(C(=O)c3cc(OC)c(OC)c(OC)c3)CC1)OCO2
The “hERG current change (%, negative = inhibition) at 1uM” value of the first is higher: 15.7% for the first, 11.4% for the second.

Compared with `COc1cccc(C2=NOC(C(=O)Nc3ccccc3SC)C2)c1` (stereo not shown), `Cc1cc(NC(=O)C2CC(c3ccccc3Cl)=NO2)no1` (stereo not shown) is higher in “hERG current change (%, negative = inhibition) at 1uM” value: 11.1% for the first, 15.3% for the second.

Compared with `Br.Cc1csc(Nc2cccc3ccccc23)n1`, `Cc1cccc(NC(=O)/C=C/c2cccs2)n1` is lower in “hERG current change (%, negative = inhibition) at 1uM” value: 18.7% for the first, 4.37% for the second.

First: COC(=O)c1ccccc1OC(=O)c1ccc(Br)o1
Second: COc1ccc(NC(=O)c2ccc(F)c(F)c2)c2ccccc12
The “hERG current change (%, negative = inhibition) at 1uM” value of the first is lower: 4.18% for the first, 19.9% for the second.

First: COc1cccc(-n2c(N)c(C(=O)Nc3c(C)n(C)n(-c4ccccc4)c3=O)c3nc4ccccc4nc32)c1
Second: Cc1ccc(C)c(NS(=O)(=O)c2ccc3c(c2)Cc2cc(S(=O)(=O)Nc4cc(C)ccc4C)ccc2-3)c1
The “hERG current change (%, negative = inhibition) at 1uM” value of the first is lower: 0.599% for the first, 9.9% for the second.

First: Cc1ccc2c(c1)N(Cc1ccc([N+](=O)[O-])cc1)C=NS2(=O)=O
Second: CCOc1ccc(S(=O)(=O)Nc2cc(S(=O)(=O)N(CC)CC)ccc2N2CCCC2)cc1
The “hERG current change (%, negative = inhibition) at 1uM” value of the first is lower: -2.66% for the first, 12% for the second.

First: O=C(O)CN1C(=O)C(=O)N(Cc2ccc(Cl)c(Cl)c2)C1=O
Second: Cc1cc(NC(=O)CSCC(=O)OCC(=O)Nc2cc(C)c(C)cc2[N+](=O)[O-])no1
The “hERG current change (%, negative = inhibition) at 1uM” value of the first is lower: -6.21% for the first, 12.9% for the second.

Compared with `CSC1=N/C(=C/c2ccc(-n3cncn3)cc2)C(=O)N1`, `CC(=O)c1cc2c(cc1NC(=O)CN1CCN(c3ccc(F)cc3)CC1)OCO2` is higher in “hERG current change (%, negative = inhibition) at 1uM” value: 11.2% for the first, 12% for the second.

First: COc1ccc(S(=O)(=O)N2CCCCCC2)cc1C(=O)OC(C)C(N)=O (stereo not shown)
Second: COc1cccc(C(=O)NCCN2CCOCC2)c1
The “hERG current change (%, negative = inhibition) at 1uM” value of the first is lower: 7.56% for the first, 9.04% for the second.

Going from `CC1CCN(C(=O)CSc2n[nH]c(-c3cccs3)n2)CC1` to `Cc1cc(C)n(CC(=O)N2CCCC(N3CCN(c4cccc(C(F)(F)F)c4)CC3)C2)n1` (stereo not shown), the “hERG current change (%, negative = inhibition) at 1uM” value falls from 4.8% to 0.938%.

Going from `CCCC(=O)Nc1cc(C)c(NC(=O)c2cccs2)cn1` to `O=C(O)CCC(=O)Nc1ccc(Cc2ccc(NC(=O)CCC(=O)O)cc2)cc1`, the “hERG current change (%, negative = inhibition) at 1uM” value rises from -6.47% to 10.4%.

First: CC(C)CC(=O)c1c[nH]c(C(=O)NCC2CCCO2)c1 (stereo not shown)
Second: Cc1cc(C)c(NC(=O)CCCCCNC2CCCCC2)c(C)c1.Cl
The “hERG current change (%, negative = inhibition) at 1uM” value of the first is lower: 7.25% for the first, 11.4% for the second.

Going from `COc1ccc(C(=O)CCNc2ccc3c(c2)OCCO3)cc1` to `COc1cccc(/C=C/c2nc(C#N)c(NCC(C)C)o2)c1`, the “hERG current change (%, negative = inhibition) at 1uM” value falls from 17.7% to 14%.

First: Cc1cc(NC(=O)C(C)(C)C)no1
Second: CCO[C@H]1OC(C(=O)Nc2ccccc2)=C[C@@H](C)[C@@H]1CCCO
The “hERG current change (%, negative = inhibition) at 1uM” value of the first is lower: 6.36% for the first, 11.6% for the second.

Compared with `CC12CN3CCN(CC(C3)/C1=N\N=C1/C3CN4CCN(C3)CC1(C)C4)C2`, `CC(C)(CO)N1CCN(C(=S)Nc2ccccc2)CC1` is higher in “hERG current change (%, negative = inhibition) at 1uM” value: -4.23% for the first, 13.8% for the second.

Going from `CC1=NN(C(N)=S)C(=O)C1N=Nc1ccccc1Cl` (stereo not shown) to `O=C(N/N=C/C=C\c1ccccc1[N+](=O)[O-])c1ccccn1`, the “hERG current change (%, negative = inhibition) at 1uM” value falls from 12.9% to 10.7%.
